{"source": "the supplement of paper PMC11417369", "note": "This is one part of the list."}
{"system": "PF3D7_0420300 AP2 domain 1 (GST-tagged)", "experiment": "gcPBM binding intensity (ln(normalized median fluorescence intensity)); higher = stronger DNA binding", "method_in_brief": "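For binding intensity, the highest Masliner-normalised natural-log median intensity across replicate spots of either probe orientation was taken. Protein bound to the array was stained with Alexa488 anti-GST antibody and scanned at 488 nm. The protein, GST-tagged P. falciparum DNA-binding domains from E. coli at about 25 μg on average, had been applied for 1 h to an Agilent 4 × 180k array of primer-extended double-stranded 36-bp intergenic genomic probes and negative controls.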"}
{"sequence": "GACAATATTAAAACATGTACATGCATTTTATGAATA [XGTACX_site553]", "gcPBM binding intensity (ln)": 9.08}
{"sequence": "TATAATATAAAATATGCACACATTGGAATGGGAGAA [CACACA_site3746]", "gcPBM binding intensity (ln)": 9.72}
{"sequence": "TATTGTAAAGTGTCATTATTACGTTATATTATATAT [CACACA_negctrl_site98]", "gcPBM binding intensity (ln)": 9.35}
{"sequence": "TTATAAAATATATATACATGCACAAAATTATAAGTA [TGCATGCA_site294]", "gcPBM binding intensity (ln)": 9.46}
{"sequence": "AATCAACATTTTTTTTGCTATTTTTTTTTTTAATTA [CACACA_negctrl_site891]", "gcPBM binding intensity (ln)": 9.34}
{"sequence": "AAAAAAACATAAAATACACACAACCTTAAGAATGTA [CACACA_site3293]", "gcPBM binding intensity (ln)": 9.81}
{"sequence": "TTTCATTTTTGAAGGTGTACTTAAAATTTATGTAAT [XGTACX_site6671]", "gcPBM binding intensity (ln)": 8.98}
{"sequence": "AAAATTTATTATCTATATAATAATATGAAACAAAAC [GTGCAC_negctrl_site731]", "gcPBM binding intensity (ln)": 9.41}
{"sequence": "ATGAAAAAAAGACATGCATGTAAATATAAATTGCTT [TGCATGCA_site504]", "gcPBM binding intensity (ln)": 9.49}
{"sequence": "CTCATTTTGTTAATGGTGCAAAAAAAAAAAAAAAAA", "gcPBM binding intensity (ln)": 8.51}
{"sequence": "CATTATAAGAGACACACACACATATATAAATATGTA [CACACA_site6621]", "gcPBM binding intensity (ln)": 9.92}
{"sequence": "AGTAAGAGGCATTAAGCATGCATATTATTATAAGCA [TGCATGCA_site237]", "gcPBM binding intensity (ln)": 9.42}
{"sequence": "TATTTAAAACTATACACATGCATTATATAAAGATAT [TGCATGCA_site702]", "gcPBM binding intensity (ln)": 9.29}
{"sequence": "ATAAAATCAAAATATACACACAAGGGGGAAAATCAA [CACACA_site2809]", "gcPBM binding intensity (ln)": 9.93}
{"sequence": "ATAGGACATGTATCCAGTACATATTTAAAAAAAATA [XGTACX_site88]", "gcPBM binding intensity (ln)": 9.1}
{"sequence": "GCATATATCAAATATCGTACATTTTTTAAATTAAAA [XGTACX_site3994]", "gcPBM binding intensity (ln)": 8.94}
{"sequence": "TTTGTAAGTCTTTGTTGTACTCAATAGAATGAAGAA [XGTACX_site8930]", "gcPBM binding intensity (ln)": 8.87}
{"sequence": "TTTTCTTTTTTTTATTGTACTTATAAAAATAAATAA [XGTACX_site3498]", "gcPBM binding intensity (ln)": 8.91}
{"sequence": "TACTTATGTGCATACCTACACACTTACATATATATA [CACACA_site2975]", "gcPBM binding intensity (ln)": 9.69}
{"sequence": "GATGATGTTTATTTGTGTACATATTAATACTTAATA [XGTACX_site1902]", "gcPBM binding intensity (ln)": 9.49}
{"sequence": "AAAAAAAGAATGTGAACACACACATTGAATATAATT [CACACA_site8341]", "gcPBM binding intensity (ln)": 9.66}
{"sequence": "AAGAACAGAACGTACACACACATATATATATATATA [CACACA_site3457]", "gcPBM binding intensity (ln)": 9.8}
{"sequence": "AATTATTTACCCTATACACACAAAACCCACTAAAAA [CACACA_site4801]", "gcPBM binding intensity (ln)": 9.87}
{"sequence": "TATAAATAAATACATACACACACATACATATATATA [CACACA_site9024]", "gcPBM binding intensity (ln)": 9.88}
{"sequence": "AATCATATGAAAAATACATGCGCATGGATACCTTTA [TGCATGCA_site224]", "gcPBM binding intensity (ln)": 9.44}
{"sequence": "AAAAAAAAAAAAAAGGTGCAAATAAATTAACCTTAT", "gcPBM binding intensity (ln)": 9.16}
{"sequence": "TTTTATTTTTTCCGACGTACATCCATTATATATAAT [XGTACX_site4469]", "gcPBM binding intensity (ln)": 9.48}
{"sequence": "AAATGTTAAAATGACAGTACATATATAAAAAAAAAA [XGTACX_site3936]", "gcPBM binding intensity (ln)": 9.34}
{"sequence": "AAATATTTGGAGAAATGTACATATTATAAATATATT [XGTACX_site6885]", "gcPBM binding intensity (ln)": 9.27}
{"sequence": "CTAGGAAATTATATGGGTACTCATATTCATAAAAAA [XGTACX_site1846]", "gcPBM binding intensity (ln)": 8.92}
{"sequence": "TAAAAAAAATAGCATACACACATATATACATATATA [CACACA_site658]", "gcPBM binding intensity (ln)": 9.56}
{"sequence": "GTCGCCAAAAGGTGTACACATAATGCATTATCATAA [CACACA_site6112]", "gcPBM binding intensity (ln)": 9.29}
{"sequence": "TACACATAATATAATGCATGTGTGATGTATGTTTAA [TGCATGCA_site697]", "gcPBM binding intensity (ln)": 9.37}
{"sequence": "ATTAAAAAATTATTCACACAAAATAAAAAAATGAAA [CACACA_site4918]", "gcPBM binding intensity (ln)": 9.37}
{"sequence": "ATATTTAGGATTATCTGTACATAATATGTTTAATTA [XGTACX_site3426]", "gcPBM binding intensity (ln)": 9.21}
{"sequence": "AAAATTATTTTTATGTGTACTTATTTATTATTTATA [XGTACX_site6665]", "gcPBM binding intensity (ln)": 9.25}
{"sequence": "TTGTATTCCTTTTACAACTACCATGAAGAGAATTTT [CACACA_negctrl_site1286]", "gcPBM binding intensity (ln)": 9.01}
{"sequence": "AAAAAAAAAAAGTACACACATACATATAAATATATA [CACACA_site1809]", "gcPBM binding intensity (ln)": 9.46}
{"sequence": "AAAGACGCAAAATTGGTGCGCTGCTTTTAGCATTTT", "gcPBM binding intensity (ln)": 9.12}
{"sequence": "ACAGAATATTTAATTCAACACACATACATATTTATT [CACACA_site8734]", "gcPBM binding intensity (ln)": 9.52}
{"sequence": "ATTTATATCCTTAAACGTACATTGTATTGTATTTTA [XGTACX_site6080]", "gcPBM binding intensity (ln)": 9.4}
{"sequence": "AATAATCATGATCAAAGTACTTATGAATACCAAAAA [XGTACX_site2572]", "gcPBM binding intensity (ln)": 9.3}
{"sequence": "TAATCTTTCGTACATGTACACACAGAAAAAAAAAAA [CACACA_site8798]", "gcPBM binding intensity (ln)": 9.34}
{"sequence": "TGCATGCATTATCATAGTACATATAATGTTGTATAA [XGTACX_site2775]", "gcPBM binding intensity (ln)": 9.05}
{"sequence": "ATTATTAAGTTTCACAAGAACATTGTTAACAATTTT [CACACA_negctrl_site1128]", "gcPBM binding intensity (ln)": 9}
{"sequence": "TATTAAGTATTTTACGTACACACTTATAAATGTACA [CACACA_site3885]", "gcPBM binding intensity (ln)": 9.28}
{"sequence": "AATTTATATTTTCGTAGTACGTATTTTATTCTTTTG [XGTACX_site4162]", "gcPBM binding intensity (ln)": 9.43}
{"sequence": "TATAAGGTGTCCTATACACACTCCAATAGATATATA [CACACA_site7066]", "gcPBM binding intensity (ln)": 9.17}
{"sequence": "CTGAACCCGTTATGGTGTACATAAAATAAGACACAG [XGTACX_site3484]", "gcPBM binding intensity (ln)": 9.18}
{"sequence": "ATTACATGCAATATATGTACGTAATATATATATATA [XGTACX_site2300]", "gcPBM binding intensity (ln)": 9.17}
{"sequence": "TTTTTATTCGATGATCAAATAGGTATATACAAAAAA [CACACA_negctrl_site1813]", "gcPBM binding intensity (ln)": 9.01}
{"sequence": "AATAATAATAGTAATATGTACATATATATATATATA [TGCATGCA_negctrl_site542]", "gcPBM binding intensity (ln)": 9.23}
{"sequence": "TATAAGCAAAAACACACACACATATATATATATATA [CACACA_site3804]", "gcPBM binding intensity (ln)": 9.65}
{"sequence": "TTATTTAAAAAAAAGTGTACCCATATATTATAAATC [XGTACX_site8374]", "gcPBM binding intensity (ln)": 9.17}
{"sequence": "TAATATTATAGATAAACACACATACACATGTAAATA [CACACA_site7049]", "gcPBM binding intensity (ln)": 9.68}
{"sequence": "AAATGAAATTTGTATACACACAAATATATATATATA [CACACA_site836]", "gcPBM binding intensity (ln)": 9.38}
{"sequence": "GCATCCCTTTTTATGTGTACATACAAAGGCAATTAC [XGTACX_site6977]", "gcPBM binding intensity (ln)": 9.28}
